Experimental findings from PubChem BioAssay AID1362 (SRMLSC, 2008) are described below.

This is one part of the list. Further columns of the screen follow, without active or inactive calls. Most of these compounds were active or inconclusive in the main read-out, so they are no random draw.

This assay is described as follows: growth inhibition of WT strain, primary screen, mitochondrial fusion inhibitor project, WT and mutant strains, chemical genetic (AID 1362). Note: tested in S. cerevisiae. The settings on record: mitochondrial fusion phenotypic screen, at 10 µM.
Broadly, the inhibition is the relative decrease from the control value, in per cent. With `COC1(C)CC2C(CC1OC(=O)c1cc([N+](=O)[O-])cc([N+](=O)[O-])c1)C2(C)C` (centres undefined), the inhibition amounted to 69.1%.

Consider `Cc1ccccc1OCc1n[nH]c(=S)n1Cc1ccccc1`, for which the inhibition amounted to 33.7%.

`Clc1ccc(SCCOCCN2CCc3ccccc3C2)cc1`: the inhibition stood at 60.5%.

As for `Cc1ccc(-c2nc(NCc3ccco3)c3ccccc3n2)cc1`, the inhibition worked out at 53.2%.

As for `NC(=S)N/N=C/c1ccc(-c2cc(Cl)ccc2Cl)o1`, the inhibition stood at 64.9%.

As for `CC1CCN(C(=O)c2ccc3c(c2NCCO)C(=O)c2ccccc2C3=O)CC1`, the inhibition stood at 41.1%.

Take `Cc1ccc(CN2CCN(/N=C/c3ccc(Cl)c([N+](=O)[O-])c3)CC2)cc1`: the inhibition was found to be 53.6%.

As for `Nc1nc(COc2ccc3ccccc3c2)cs1`, the inhibition turned out to be 68.6%.

For the compound `O=C(CNc1cccc2ccccc12)N/N=C/C(Br)=C/c1ccccc1`, the inhibition was determined as 65.9%.

Turning to `CCOc1ccccc1NC(C)C(=O)Nc1cc(C(F)(F)F)ccc1N1CCOCC1` (centres undefined), the inhibition was determined as 3.85%.

As for `COc1ccc(NC(=S)Nc2cc(-c3ccccc3)[nH]n2)cc1Cl`, the inhibition turned out to be 40.9%.

In the case of `O=C(O)c1ccccc1C(=O)c1ccc2c(c1)N(Cc1ccc(Cl)c(Cl)c1)C(=O)CO2`, the inhibition stood at 15.4%.

As for `O=c1cc2c(nn1Cc1ccc(Cl)cc1Cl)-c1ccccc1CC2`, the inhibition worked out at 6.72%.

On to `CN(NS(=O)(=O)c1ccc(Br)cc1)c1nc(C(F)(F)F)nc2ccccc12`, for which the inhibition stood at 38.1%.

In the case of `CCOc1ccccc1N1CCN(C(=S)NC(=O)C23CC4CC(CC(C4)C2)C3)CC1`, the inhibition is 5.92%.

Take `Cc1ccc(-n2c(C)cc(C3=NNC(=NC4CC4)SC3)c2C)cc1C`: the inhibition amounted to 58.2%.

As to `Cc1cccc(-n2cc(CN3CCN(Cc4nccn4C)CC3)c(-c3cccc(F)c3)n2)c1`, the inhibition was 73.4%.

As to `CCC(=O)Nc1sc(Cc2ccccc2)c(C)c1C(N)=O`, the inhibition was 69.7%.

On to `Cc1nc(NC2=NCN(C3CCCCC3C)CN2)nc2ccccc12` (centres undefined), for which the inhibition came out at 2.57%.

For the compound `N#Cc1nc(Cc2cccc3ccccc23)oc1NCc1ccc(F)cc1`, the inhibition is 31.8%.

Take `O=C(CNC(=S)N(Cc1ccccc1)Cc1ccccc1F)NCCc1ccccc1`: the inhibition was -7.82%.

Take `Cc1ccc(-c2cc(-c3ccccc3Cl)[nH]n2)c(O)c1`: the inhibition is 67%.

`NNC(=O)c1ccc(COc2cccc3ccccc23)cc1`: the inhibition is 41.9%.

Consider `Clc1ccccc1-c1ccc(CN2CCN(c3ccccc3)CC2)o1`, for which the inhibition was 55.2%.

Take `O=C(Nc1ccccn1)c1cc(-c2cccc(Cl)c2)nc2ccccc12`: the inhibition stood at 45.8%.

As to `COC(=O)[C@H](Cc1ccccc1)NC(=O)O[C@H]1C(=O)c2ccc(OC)cc2O[C@@H]1c1ccc2c(c1)OCO2`, the inhibition was -12.6%.

As to `OCCN1CCN(c2ncnc3c2c(-c2ccccc2)cn3-c2ccc(Br)cc2)CC1`, the inhibition was 80.6%.

Take `CC(=O)Oc1ccc(-c2cccc(C(=O)Oc3ccccc3)c2)cc1`: the inhibition came to 39.8%.

As for `O=C(c1cc(C2CC2)nc2ccc(Br)cc12)N1N=C(C(F)F)CC1(O)C(F)F` (centres undefined), the inhibition stood at 31.1%.
